# Assay results as given in the supplement of paper PMC9446081.
# About 220 (0.56%) of roughly 39,000 compounds showed activity. This is one part of the list.
# Tested on: Escherichia coli K-12 BW25113
# Experiment: relative growth (OD600 normalised to plate interquartile mean) (fraction); higher = less growth inhibition, active = 0.2 or less
# Details: 50 µM; LB; incubation time: overnight (16-24 h)
# 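Note: static incubation at 37 °C against the wild-type strain, values averaged over two biological replicates.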
row,Structure (SMILES),relative growth
1,COc1ccc(CN(C)C[C@H]2Oc3ccc(NS(=O)(=O)c4c(C)noc4C)cc3CC(=O)N([C@@H](C)CO)C[C@@H]2C)cc1,inactive: 0.995
2,C[C@@H]1CN([C@@H](C)CO)C(=O)c2cc(-c3ccc(C#N)cc3)cnc2O[C@@H]1CN(C)C(=O)Nc1ccc(C(F)(F)F)cc1,inactive: 0.993
3,COc1ccc(S(=O)(=O)Nc2ccc3c(c2)C(=O)N([C@@H](C)CO)C[C@@H](C)[C@H](CN(C)S(=O)(=O)c2cn(C)cn2)OCCCC[C@@H](C)O3)cc1,inactive: 1.01
4,C[C@@H]1CCCCO[C@@H](CN(C)C(=O)Nc2ccc3c(c2)OCO3)[C@H](C)CN([C@H](C)CO)C(=O)c2cc(NC(=O)CCC(F)(F)F)ccc2O1,inactive: 1.01
5,CC(C)Oc1cccc(CC(=O)N2CCC[C@](CC[N+]34CCC(c5ccccc5)(CC3)CC4)(c3ccc(Cl)c(Cl)c3)C2)c1,inactive: 0.979
6,C[C@@H]1CN([C@@H](C)CO)C(=O)c2cc(C#CCN(C)C)cnc2O[C@@H]1CN(C)C(=O)Nc1cccc(F)c1,inactive: 1
7,CC(C)NC(=O)Nc1cccc2c1O[C@H](CN(C)Cc1ccc(C(=O)O)cc1)[C@H](C)CN([C@H](C)CO)C2=O,inactive: 0.993
8,NC(=O)CCCCC1CCSS1 (configuration not stated),inactive: 1.18
9,CC(C)NC(=O)Nc1cccc2c1O[C@@H](CN(C)S(=O)(=O)c1ccccc1)[C@@H](C)CN([C@H](C)CO)C2=O,inactive: 0.995
10,COc1cccc(-c2cccc(-c3nc(C(=O)NCC(F)(F)F)cc4c3[C@@H](CCO)N([S@](=O)C(C)(C)C)C4)c2)c1,inactive: 0.928
11,Cc1noc(C)c1NC(=O)Nc1cccc2c1O[C@H](CN(C)Cc1ccc(Cl)c(Cl)c1)[C@@H](C)CN([C@H](C)CO)C2=O,inactive: 1
12,COc1ccc(NC(=O)N(C)C[C@H]2OCCCC[C@H](C)Oc3ccc(NS(=O)(=O)c4cccs4)cc3C(=O)N([C@@H](C)CO)C[C@H]2C)cc1,inactive: 1.03
13,CC(C)CCN1CCc2nnc(CO)n2CC1,inactive: 1
14,O=C(C[C@H]1C=C[C@@H](NC(=O)CN2CCOCC2)[C@@H](CO)O1)NC1CCCCC1,inactive: 0.987
15,COc1ccc(C2=CCCC2)cc1,inactive: 0.984
16,CC(/C=C/C(=O)NO)=C\c1ccccc1OCc1cn(-c2ccc(C[C@H]3C(=O)O[C@@H](Cc4ccccc4)[C@H]4[C@@H]5C=CCCC=C5CN43)cc2)nn1,inactive: 1.01
17,C[C@H](C(=O)O)N1C(=O)CSC1=O,inactive: 1.01
18,COc1cc2ccccc2cc1C(=O)OCC(=O)N(CC(C)C)c1c(N)n(Cc2ccccc2)c(=O)[nH]c1=O,inactive: 1.03
19,C[C@H](CO)N1C[C@H](C)[C@@H](CN(C)C(=O)CCCN(C)C)OCc2cn(nn2)CCCC1=O,inactive: 1.01
20,O=C(OOC(=O)c1ccccc1)c1ccccc1,inactive: 0.938
21,Cn1cnc(S(=O)(=O)N[C@@H]2CC[C@@H](CC(=O)N3CCN(c4ccccc4)CC3)O[C@@H]2CO)c1,inactive: 0.99

row,Structure (SMILES),relative growth
1,CO[C@@H](CN(C)S(=O)(=O)c1ccc(Cl)cc1)[C@@H](C)CN([C@H](C)CO)S(=O)(=O)c1cccc(Cl)c1,inactive: 0.893
2,C[C@H](CO)N1C[C@H](C)[C@H](CN(C)C(=O)c2ccc(F)cc2)OCc2ccccc2-c2c(n(C)c3ccccc23)C1=O,inactive: 1.01
3,C[C@@H]1CCCCO[C@@H](CN(C)S(=O)(=O)c2ccccc2)[C@H](C)CN([C@@H](C)CO)C(=O)c2cc(NC(=O)Nc3ccc(C(F)(F)F)cc3)ccc2O1,inactive: 1.01
4,COc1ccc(S(=O)(=O)N(C)C[C@H]2Oc3c(NC(=O)NC(C)C)cccc3C(=O)N([C@@H](C)CO)C[C@H]2C)cc1,inactive: 1
5,Cc1noc(C)c1NC(=O)Nc1cccc2c1O[C@H](CN(C)C(=O)NC(C)C)[C@@H](C)CN([C@H](C)CO)C2=O,inactive: 1.03
6,COc1ccc(S(=O)(=O)N(C)C[C@H]2Oc3c(NC(=O)Nc4c(C)noc4C)cccc3C(=O)N([C@H](C)CO)C[C@H]2C)cc1,inactive: 0.982
7,Cc1ccc(S(=O)(=O)N(C)C[C@@H]2Oc3ccc(NS(=O)(=O)c4ccccc4)cc3C(=O)N([C@@H](C)CO)C[C@@H]2C)cc1,inactive: 0.981
8,O=c1c(-c2nn[nH]n2)coc2ccccc12,inactive: 0.98
9,CCC1(C)OC(=O)N(C)C1=O (configuration not stated),inactive: 0.999
10,Nc1nc(=O)c2c([nH]1)NCC(CNc1ccc(C(=O)NC(CCC(=O)[O-])C(=O)[O-])cc1)N2C=O.[Ca+2] (configuration not stated),inactive: 1.05
11,NCCSC(=S)NC1CCCCCCC1,inactive: 0.961
12,CC(C)NC(=O)Nc1ccc2c(c1)C(=O)N(C)[C@H]1CC[C@@H](CC(=O)NCc3ccc(F)cc3)O[C@H]1CO2,inactive: 1.02
13,NCCCC[C@H](N)C(=O)O,inactive: 1.01
14,CC(O)Cn1cnc2c1c(=O)n(C)c(=O)n2C (configuration not stated),inactive: 0.951
15,C[C@H](NC(=O)N(C)C[C@H]1OCc2ccccc2-c2c(n(C)c3ccccc23)C(=O)N([C@H](C)CO)C[C@@H]1C)c1ccccc1,inactive: 0.989
16,C[C@H](CO)N1C[C@H](C)[C@@H](CN(C)C(=O)C2CCCCC2)OCCCC[C@H](C)Oc2ccc(NC(=O)Nc3ccc(F)cc3)cc2C1=O,inactive: 1.04
17,Cc1noc(C)c1S(=O)(=O)Nc1ccc2c(c1)C(=O)N([C@H](C)CO)C[C@H](C)[C@H](CN(C)Cc1ccc3c(c1)OCO3)O2,inactive: 0.967
18,COc1ccc(NC(=O)N2C[C@H](O)COC[C@H]3O[C@H](CC(=O)NC4Cc5ccccc5C4)CC[C@@H]32)cc1,inactive: 1.01
19,C[C@@H]1CN([C@@H](C)CO)C(=O)c2cc(NS(=O)(=O)c3cn(C)cn3)ccc2O[C@@H](C)CCCCO[C@@H]1CN(C)C(=O)Nc1ccc(C(F)(F)F)cc1,inactive: 0.923
20,CO[C@H](C(=O)N(C)C[C@H]1OCc2ccccc2-c2c(n(C)c3ccccc23)C(=O)N([C@H](C)CO)C[C@@H]1C)c1ccccc1,inactive: 0.974
21,Cc1noc(C)c1S(=O)(=O)Nc1ccc2c(c1)C(=O)N([C@H](C)CO)C[C@@H](C)[C@@H](CN(C)S(=O)(=O)c1cccs1)O2,inactive: 0.998

row,Structure (SMILES),relative growth
1,COc1ccc(NC(=O)Nc2ccc3c(c2)C(=O)N([C@H](C)CO)C[C@@H](C)[C@H](CN(C)Cc2ccc(-c4ccccc4)cc2)O3)cc1,inactive: 0.999
2,C[C@@H]1CN([C@H](C)CO)C(=O)c2cccc(NC(=O)Nc3ccccc3)c2O[C@H]1CN(C)S(C)(=O)=O,inactive: 1.02
3,FC(F)(F)c1ccc(/C=N/c2cc(Cl)cc(Cl)c2)cc1,inactive: 1.03
4,C[C@@H]1CN([C@H](C)CO)C(=O)c2cc(NC(=O)Cn3cnnn3)ccc2O[C@@H]1CN(C)S(=O)(=O)c1cn(C)cn1,inactive: 1.01
5,COc1ccc(NC(=O)N(C)C[C@H]2OCCCC[C@H](C)Oc3ccc(NS(=O)(=O)c4ccc(C)cc4)cc3C(=O)N([C@@H](C)CO)C[C@@H]2C)cc1,inactive: 0.954
6,COc1cccc(NC(=O)N(C)C[C@@H]2OCc3ccccc3-c3c(n(C)c4ccccc34)C(=O)N([C@@H](C)CO)C[C@H]2C)c1,inactive: 1
7,C[C@@H]1CN([C@H](C)CO)S(=O)(=O)c2ccc(C#CCN(C)C)cc2O[C@H]1CN(C)Cc1ccccc1F,inactive: 0.995
8,COc1ccc(NC(=O)Nc2ccc3c(c2)C(=O)N([C@@H](C)CO)C[C@@H](C)[C@H](CN(C)Cc2ccc4c(c2)OCO4)OCCCC[C@H](C)O3)cc1,inactive: 0.979
9,COc1cccc(S(=O)(=O)N(C)C[C@@H]2OCc3cnnn3CCCC(=O)N([C@@H](C)CO)C[C@@H]2C)c1,inactive: 1.02
10,C[C@@H]1CN([C@@H](C)CO)C(=O)c2cccc(NS(=O)(=O)c3ccc(Cl)cc3)c2O[C@@H]1CN(C)S(=O)(=O)c1cn(C)cn1,inactive: 1.04
11,COCC(=O)N(C)C[C@H]1Oc2cc(C#CC(C)(C)O)ccc2S(=O)(=O)N([C@@H](C)CO)C[C@H]1C,inactive: 1.01
12,COC(=O)C(CC#Cc1ccc2c(c1)[C@]1(C(=O)N2)[C@H](c2ccc(O)cc2)N2[C@H](c3ccccc3)[C@H](c3ccccc3)OC(=O)[C@H]2[C@@H]1C(=O)N1CCc2cc(OC)c(OC)cc2C1)C(=O)OC,inactive: 1.01
13,C1CCC(C(C[C@H]2CCCCN2)C2CCCCC2)CC1,inactive: 0.935
14,CC(C)NC(=O)N(C)C[C@@H]1Oc2ccc(NS(=O)(=O)c3ccc(Cl)cc3)cc2C(=O)N([C@@H](C)CO)C[C@H]1C,inactive: 0.988
15,C[C@@H]1CCCCO[C@H](CN(C)C(=O)NC2CCCCC2)[C@H](C)CN([C@@H](C)CO)C(=O)c2cc(NC(=O)Nc3ccc(F)cc3)ccc2O1,inactive: 1.01
16,Cc1noc(C)c1NC(=O)Nc1ccc2c(c1)C(=O)N([C@@H](C)CO)C[C@@H](C)[C@@H](CN(C)S(C)(=O)=O)O2,inactive: 0.946
17,CC(C)c1nc(CN(C)C(=O)N[C@H](C(=O)N[C@@H](Cc2ccccc2)C[C@H](O)[C@H](Cc2ccccc2)NC(=O)OCc2cncs2)C(C)C)cs1,inactive: 1.05
18,C[C@@H]1CN([C@H](C)CO)C(=O)Cc2cc(NC(=O)c3ccncc3)ccc2O[C@@H]1CN(C)Cc1ccc2c(c1)OCO2,inactive: 1
19,O=C(C[C@H]1CC[C@H]2[C@@H](COC[C@H](O)CN2C(=O)c2ccccc2F)O1)N1CCN(c2ccccc2)CC1,inactive: 0.917
20,COc1ccc(NC(=O)N(C)C[C@@H]2Oc3c(NS(C)(=O)=O)cccc3C(=O)N([C@@H](C)CO)C[C@@H]2C)cc1,inactive: 0.971
